Measured values published in the supplement of paper PMC6657886.
MIC of clinical N. gonorrhoeae isolates (2015-2017) by agar dilution on GC agar with 1% IsoVitaleX (ranges not stated); higher = less susceptible. No active / inactive call per row; the paper counts benzylpenicillin above 1 and ceftriaxone above 0.125 mg/L as resistant (EUCAST). The method is stated for benzylpenicillin and ceftriaxone and assumed for the other drugs. '<=' is inferred from pile-ups at the end values. Isolates are numbered anew.

Experiments:
Assay in all cases: Agar dilution on enriched GC agar; resistance determinants by microarray.
ceftriaxone = compound: CO/N=C(\C(=O)N[C@@H]1C(=O)N2C(C(=O)O)=C(CSc3nc(=O)c(O)nn3C)CS[C@H]12)c1csc(N)n1 [ceftriaxone]
tetracycline = compound: CN(C)[C@@H]1C(O)=C(C(N)=O)C(=O)[C@@]2(O)C(O)=C3C(=O)c4c(O)cccc4[C@@](C)(O)[C@H]3C[C@@H]12 [tetracycline]
azithromycin = compound: CC[C@H]1OC(=O)[C@H](C)[C@@H](O[C@H]2C[C@@](C)(OC)[C@@H](O)[C@H](C)O2)[C@H](C)[C@@H](O[C@@H]2O[C@H](C)C[C@H](N(C)C)[C@H]2O)[C@](C)(O)C[C@@H](C)CN(C)[C@H](C)[C@@H](O)[C@]1(C)O [azithromycin]
spectinomycin = compound: CN[C@@H]1[C@H](O)[C@H](NC)[C@H]2O[C@@]3(O)C(=O)C[C@@H](C)O[C@H]3O[C@@H]2[C@H]1O [spectinomycin]
benzylpenicillin = compound: CC1(C)S[C@@H]2[C@H](NC(=O)Cc3ccccc3)C(=O)N2[C@H]1C(=O)O [benzylpenicillin]

Test System	MIC (ceftriaxone)	MIC (tetracycline)	MIC (azithromycin)	MIC (spectinomycin)	MIC (benzylpenicillin)
Neisseria gonorrhoeae isolate 195 (blaTEM plasmid: no, gyrA: wild type, mtrR promoter: wild type, parC: wild type, penA: wild type, ponA: wild type, porB: wild type, rpsJ: wild type, tetM plasmid: no)	≤ 0.002 µg/mL	0.25 µg/mL	0.25 µg/mL	32 µg/mL	0.03 µg/mL
Neisseria gonorrhoeae isolate 76 (blaTEM plasmid: no, gyrA: Phe91, Asn95, mtrR promoter: -35delA, parC: Arg87, Glu91, penA: ins345Asp, ponA: Pro421, porB: Thr 120, Asn 121, rpsJ: Met57, tetM plasmid: no)	0.03 µg/mL	1 µg/mL	0.25 µg/mL	16 µg/mL	1 µg/mL
Neisseria gonorrhoeae isolate 248 (blaTEM plasmid: no, gyrA: wild type, mtrR promoter: wild type, parC: wild type, penA: ins345Asp, ponA: wild type, porB: wild type, rpsJ: wild type, tetM plasmid: no)	0.008 µg/mL	0.12 µg/mL	0.12 µg/mL	16 µg/mL	0.06 µg/mL
Neisseria gonorrhoeae isolate 46 (blaTEM plasmid: no, gyrA: Phe91, Asn95, mtrR promoter: -35delA, parC: wild type, penA: ins345Asp, ponA: Pro421, porB: Lys 120, Gly121, rpsJ: Met57, tetM plasmid: no)	0.015 µg/mL	4 µg/mL	0.25 µg/mL	8 µg/mL	0.5 µg/mL
Neisseria gonorrhoeae isolate 477 (blaTEM plasmid: no, gyrA: wild type, mtrR promoter: wild type, parC: wild type, penA: ins345Asp, ponA: Pro421, porB: wild type, rpsJ: Met57, tetM plasmid: no)	≤ 0.002 µg/mL	0.5 µg/mL	0.12 µg/mL	16 µg/mL	0.12 µg/mL
Neisseria gonorrhoeae isolate 330 (blaTEM plasmid: no, gyrA: wild type, mtrR promoter: wild type, parC: wild type, penA: wild type, ponA: wild type, porB: wild type, rpsJ: wild type, tetM plasmid: no)	≤ 0.002 µg/mL	1 µg/mL	0.002 µg/mL	32 µg/mL	≤ 0.015 µg/mL
Neisseria gonorrhoeae isolate 255 (blaTEM plasmid: no, gyrA: Phe91, Asn 95, mtrR promoter: -35delA, parC: wild type, penA: ins345Asp, ponA: Pro421, porB: Asn120, Asp121, rpsJ: Met57, tetM plasmid: no)	0.03 µg/mL	0.5 µg/mL	0.25 µg/mL	8 µg/mL	1 µg/mL
Neisseria gonorrhoeae isolate 508 (blaTEM plasmid: no, gyrA: Phe91, Gly95, mtrR promoter: -35delA, parC: Arg87, Glu91, penA: ins345Asp, ponA: Pro421, porB: Lys 120, Asn 121, rpsJ: Met57, tetM plasmid: no)	0.03 µg/mL	4 µg/mL	0.06 µg/mL	32 µg/mL	2 µg/mL
Neisseria gonorrhoeae isolate 60 (blaTEM plasmid: no, gyrA: wild type, mtrR promoter: wild type, parC: Arg87, Glu91, penA: ins345Asp, ponA: wild type, porB: wild type, rpsJ: wild type, tetM plasmid: no)	≤ 0.002 µg/mL	0.06 µg/mL	0.06 µg/mL	8 µg/mL	0.03 µg/mL
Neisseria gonorrhoeae isolate 83 (blaTEM plasmid: no, gyrA: Phe91, Gly95, mtrR promoter: wild type, parC: Arg 87, Glu91, penA: ins345Asp, ponA: Pro421, porB: Asp120, Ala121, rpsJ: Met57, tetM plasmid: no)	≤ 0.002 µg/mL	0.12 µg/mL	0.06 µg/mL	16 µg/mL	0.03 µg/mL
Neisseria gonorrhoeae isolate 353 (blaTEM plasmid: yes, gyrA: Phe91, Asn95, mtrR promoter: wild type, parC: wild type, penA: wild type, ponA: wild type, porB: wild type, rpsJ: Met57, tetM plasmid: yes)	≤ 0.002 µg/mL	8 µg/mL	0.03 µg/mL	32 µg/mL	≥ 32 µg/mL
Neisseria gonorrhoeae isolate 343 (blaTEM plasmid: no, gyrA: wild type, mtrR promoter: wild type, parC: wild type, penA: wild type, ponA: wild type, porB: wild type, rpsJ: wild type, tetM plasmid: no)	≤ 0.002 µg/mL	0.25 µg/mL	0.12 µg/mL	8 µg/mL	0.06 µg/mL
Neisseria gonorrhoeae isolate 355 (blaTEM plasmid: no, gyrA: wild type, mtrR promoter: wild type, parC: wild type, penA: ins345Asp, ponA: wild type, porB: wild type, rpsJ: wild type, tetM plasmid: no)	0.008 µg/mL	0.5 µg/mL	0.03 µg/mL	16 µg/mL	0.06 µg/mL
Neisseria gonorrhoeae isolate 199 (blaTEM plasmid: no, gyrA: Phe91, Asn95, mtrR promoter: wild type, parC: wild type, penA: ins345Asp, ponA: Pro421, porB: Asn120, Asp121, rpsJ: wild type, tetM plasmid: no)	0.015 µg/mL	2 µg/mL	0.5 µg/mL	16 µg/mL	0.5 µg/mL
Neisseria gonorrhoeae isolate 369 (blaTEM plasmid: no, gyrA: Phe91, Asp95, mtrR promoter: -35delA, parC: Arg87, Glu91, penA: ins345Asp, ponA: Pro421, porB: Asp120, Ala121, rpsJ: Met57, tetM plasmid: no)	0.008 µg/mL	4 µg/mL	0.5 µg/mL	16 µg/mL	0.06 µg/mL
Neisseria gonorrhoeae isolate 93 (blaTEM plasmid: yes, gyrA: Phe91, Asp95, mtrR promoter: wild type, parC: wild type, penA: ins345Asp, ponA: wild type, porB: wild type, rpsJ: Met57, tetM plasmid: yes)	≤ 0.002 µg/mL	16 µg/mL	0.06 µg/mL	32 µg/mL	≥ 32 µg/mL
Neisseria gonorrhoeae isolate 223 (blaTEM plasmid: no, gyrA: wild type, mtrR promoter: wild type, parC: wild type, penA: ins345Asp, ponA: wild type, porB: wild type, rpsJ: wild type, tetM plasmid: no)	≤ 0.002 µg/mL	0.25 µg/mL	0.06 µg/mL	16 µg/mL	≤ 0.015 µg/mL
Neisseria gonorrhoeae isolate 27 (blaTEM plasmid: no, gyrA: wild type, mtrR promoter: wild type, parC: wild type, penA: ins345Asp, ponA: wild type, porB: Asp120, Ala121, rpsJ: wild type, tetM plasmid: no)	0.25 µg/mL	0.06 µg/mL	0.008 µg/mL	32 µg/mL	0.25 µg/mL
Neisseria gonorrhoeae isolate 28 (blaTEM plasmid: no, gyrA: Phe91, Gly95, mtrR promoter: wild type, parC: wild type, penA: ins345Asp, ponA: Pro421, porB: Asp120, Ala121, rpsJ: Met57, tetM plasmid: no)	0.015 µg/mL	2 µg/mL	0.03 µg/mL	32 µg/mL	1 µg/mL
Neisseria gonorrhoeae isolate 150 (blaTEM plasmid: no, gyrA: Thr91, Gly95, mtrR promoter: -35delA, parC: wild type, penA: ins345Asp, ponA: Pro421, porB: Asn120, Asp121, rpsJ: Met57, tetM plasmid: no)	0.032 µg/mL	1 µg/mL	0.5 µg/mL	16 µg/mL	0.12 µg/mL
Neisseria gonorrhoeae isolate 332 (blaTEM plasmid: no, gyrA: wild type, mtrR promoter: wild type, parC: wild type, penA: wild type, ponA: wild type, porB: wild type, rpsJ: wild type, tetM plasmid: no)	≤ 0.002 µg/mL	0.06 µg/mL	0.12 µg/mL	16 µg/mL	≤ 0.015 µg/mL
Neisseria gonorrhoeae isolate 6 (blaTEM plasmid: no, gyrA: Phe91, Asn95, mtrR promoter: -35delA, parC: Ser87, Gly91, penA: ins345Asp, ponA: Pro421, porB: wild type, rpsJ: Met57, tetM plasmid: no)	≤ 0.002 µg/mL	0.25 µg/mL	0.03 µg/mL	16 µg/mL	0.03 µg/mL
Neisseria gonorrhoeae isolate 506 (blaTEM plasmid: no, gyrA: wild type, mtrR promoter: wild type, parC: wild type, penA: wild type, ponA: wild type, porB: wild type, rpsJ: wild type, tetM plasmid: no)	≤ 0.002 µg/mL	0.25 µg/mL	0.12 µg/mL	32 µg/mL	≤ 0.015 µg/mL
Neisseria gonorrhoeae isolate 113 (blaTEM plasmid: no, gyrA: wild type, mtrR promoter: wild type, parC: wild type, penA: wild type, ponA: wild type, porB: wild type, rpsJ: wild type, tetM plasmid: no)	≤ 0.002 µg/mL	0.12 µg/mL	0.25 µg/mL	32 µg/mL	0.03 µg/mL
Neisseria gonorrhoeae isolate 165 (blaTEM plasmid: no, gyrA: wild type, mtrR promoter: wild type, parC: wild type, penA: ins345Asp, ponA: wild type, porB: wild type, rpsJ: Met57, tetM plasmid: no)	≤ 0.002 µg/mL	0.5 µg/mL	0.12 µg/mL	32 µg/mL	≤ 0.015 µg/mL
